Three molecules from article PMC2982839 can be followed below.

Protein sequences, listed by entry. Tags and fused reporters are not part of them.
UniProt Q6WKZ8: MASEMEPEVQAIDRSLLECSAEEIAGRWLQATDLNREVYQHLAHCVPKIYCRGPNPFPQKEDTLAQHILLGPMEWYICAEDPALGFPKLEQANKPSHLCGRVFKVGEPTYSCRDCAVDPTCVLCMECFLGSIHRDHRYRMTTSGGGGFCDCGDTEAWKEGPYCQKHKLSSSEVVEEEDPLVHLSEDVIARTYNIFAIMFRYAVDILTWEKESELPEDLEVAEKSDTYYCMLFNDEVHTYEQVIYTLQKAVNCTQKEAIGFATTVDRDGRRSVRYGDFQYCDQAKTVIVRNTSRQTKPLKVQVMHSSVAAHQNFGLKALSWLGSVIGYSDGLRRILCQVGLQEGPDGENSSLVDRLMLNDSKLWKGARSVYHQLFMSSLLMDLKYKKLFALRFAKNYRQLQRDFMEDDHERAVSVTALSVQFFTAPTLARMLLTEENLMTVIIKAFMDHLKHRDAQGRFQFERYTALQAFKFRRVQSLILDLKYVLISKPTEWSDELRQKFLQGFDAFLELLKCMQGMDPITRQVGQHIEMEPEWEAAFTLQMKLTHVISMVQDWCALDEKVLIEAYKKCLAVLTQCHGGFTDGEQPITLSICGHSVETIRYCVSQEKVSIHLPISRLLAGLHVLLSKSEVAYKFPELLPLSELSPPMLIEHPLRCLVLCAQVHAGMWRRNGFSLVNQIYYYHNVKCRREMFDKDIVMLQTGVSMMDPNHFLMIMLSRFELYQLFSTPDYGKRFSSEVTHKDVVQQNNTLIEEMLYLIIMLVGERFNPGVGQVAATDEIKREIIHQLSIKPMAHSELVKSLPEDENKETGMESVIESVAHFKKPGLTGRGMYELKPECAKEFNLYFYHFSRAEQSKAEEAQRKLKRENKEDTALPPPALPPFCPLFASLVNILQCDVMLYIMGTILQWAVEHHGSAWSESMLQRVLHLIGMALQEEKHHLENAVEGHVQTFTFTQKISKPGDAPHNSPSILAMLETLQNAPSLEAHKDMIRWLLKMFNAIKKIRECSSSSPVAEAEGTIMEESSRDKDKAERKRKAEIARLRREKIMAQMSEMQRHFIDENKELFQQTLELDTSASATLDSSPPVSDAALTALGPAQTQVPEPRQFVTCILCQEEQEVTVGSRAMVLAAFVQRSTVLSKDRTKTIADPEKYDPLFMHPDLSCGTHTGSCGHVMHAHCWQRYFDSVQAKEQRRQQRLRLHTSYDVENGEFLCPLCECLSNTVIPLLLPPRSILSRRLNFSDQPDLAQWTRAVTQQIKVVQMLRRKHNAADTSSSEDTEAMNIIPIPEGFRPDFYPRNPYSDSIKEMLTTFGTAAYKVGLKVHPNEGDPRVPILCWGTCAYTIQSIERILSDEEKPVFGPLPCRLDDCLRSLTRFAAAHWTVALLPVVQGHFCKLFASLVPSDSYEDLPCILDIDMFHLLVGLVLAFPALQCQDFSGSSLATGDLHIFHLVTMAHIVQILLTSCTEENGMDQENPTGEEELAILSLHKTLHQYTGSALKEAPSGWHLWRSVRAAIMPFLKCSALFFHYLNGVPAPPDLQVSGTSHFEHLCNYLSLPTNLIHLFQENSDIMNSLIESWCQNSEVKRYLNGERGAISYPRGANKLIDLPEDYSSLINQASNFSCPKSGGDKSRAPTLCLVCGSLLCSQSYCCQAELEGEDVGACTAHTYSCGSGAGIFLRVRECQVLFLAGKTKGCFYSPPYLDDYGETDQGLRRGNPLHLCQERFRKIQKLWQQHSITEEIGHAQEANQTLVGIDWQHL

Results are given in words; binding and its absence hold for the method and conditions named. Binding seen in cells or lysates may run through a third protein. Some results given as binding are weak or reduced against the parent protein; the word gives no strength. For some assays here: Where a sequence is shown, tags or fusion partners need not be part of it.

Assay [1] has as its target T1, Tex19.1 (mouse (endogenous in testis)) (UniProt Q99MV2).
T1 sequence: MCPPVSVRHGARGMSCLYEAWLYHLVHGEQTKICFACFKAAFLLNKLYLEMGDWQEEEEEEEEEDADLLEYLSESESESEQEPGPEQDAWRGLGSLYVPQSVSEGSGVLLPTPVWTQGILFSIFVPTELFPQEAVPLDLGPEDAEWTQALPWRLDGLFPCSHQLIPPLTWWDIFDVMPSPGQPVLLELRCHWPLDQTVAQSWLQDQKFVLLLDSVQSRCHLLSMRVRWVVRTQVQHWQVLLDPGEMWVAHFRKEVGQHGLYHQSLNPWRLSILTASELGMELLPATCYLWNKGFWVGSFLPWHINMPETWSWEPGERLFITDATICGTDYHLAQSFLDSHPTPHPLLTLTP
The assay can be described thus: co-IP; IP from testicular extracts of 20-day-old wild type and Tex19.1-/- mice with anti-Tex19.1 or anti-Ubr2 antibody, then western blot. (In general: Immunoblotting shows a protein as a band on a membrane.)

For assay [2], the target named is T2, V5-tagged Tex19.1 (wild type) (mouse) (UniProt Q99MV2).
T2 sequence: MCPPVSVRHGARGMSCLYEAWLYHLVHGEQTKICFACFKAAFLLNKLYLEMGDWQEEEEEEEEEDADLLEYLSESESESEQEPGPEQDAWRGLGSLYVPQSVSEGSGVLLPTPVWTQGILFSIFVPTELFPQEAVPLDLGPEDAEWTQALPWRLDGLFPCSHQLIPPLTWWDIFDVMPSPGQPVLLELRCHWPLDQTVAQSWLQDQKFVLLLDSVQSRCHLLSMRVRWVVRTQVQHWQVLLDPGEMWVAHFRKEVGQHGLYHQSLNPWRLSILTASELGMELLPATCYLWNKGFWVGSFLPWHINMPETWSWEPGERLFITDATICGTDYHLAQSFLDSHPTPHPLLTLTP
Put plainly: co-IP; co-transfection of NIH3T3 cells; IP and western blot with anti-V5, anti-Tex19.1 and anti-Ubr2 antibodies.

Assay [3] has as its target T3, Tex19.1N (mouse) (UniProt Q99MV2).
T3 sequence: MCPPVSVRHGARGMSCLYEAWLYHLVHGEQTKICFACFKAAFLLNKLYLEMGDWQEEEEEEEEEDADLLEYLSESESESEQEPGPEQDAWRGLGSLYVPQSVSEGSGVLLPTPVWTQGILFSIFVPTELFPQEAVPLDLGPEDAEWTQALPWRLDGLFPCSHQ
The description is as above.

Assay [4] has as its target T4, V5-tagged Tex19.2 (mouse) (UniProt Q9D5S1).
T4 sequence: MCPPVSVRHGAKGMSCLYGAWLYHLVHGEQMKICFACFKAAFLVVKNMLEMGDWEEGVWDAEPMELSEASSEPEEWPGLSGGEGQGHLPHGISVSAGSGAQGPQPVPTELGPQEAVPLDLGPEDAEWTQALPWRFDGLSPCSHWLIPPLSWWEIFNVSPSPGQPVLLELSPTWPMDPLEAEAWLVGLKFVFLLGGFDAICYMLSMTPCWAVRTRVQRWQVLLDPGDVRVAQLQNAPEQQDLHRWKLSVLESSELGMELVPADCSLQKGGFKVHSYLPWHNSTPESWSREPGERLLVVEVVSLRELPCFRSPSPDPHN
Described as above.

Assay [5] has as its target T5, Tex19.1C (mouse) (UniProt Q99MV2).
T5 sequence: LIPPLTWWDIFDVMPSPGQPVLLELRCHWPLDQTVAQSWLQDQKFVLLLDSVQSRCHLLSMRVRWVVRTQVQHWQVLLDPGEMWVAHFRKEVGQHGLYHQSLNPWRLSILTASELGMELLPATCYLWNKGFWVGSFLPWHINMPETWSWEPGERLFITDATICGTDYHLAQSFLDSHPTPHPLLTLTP
Described as above.

The target in assay [6] is T6, C2G-Tex19.1 (mouse) (UniProt Q99MV2).
T6 sequence: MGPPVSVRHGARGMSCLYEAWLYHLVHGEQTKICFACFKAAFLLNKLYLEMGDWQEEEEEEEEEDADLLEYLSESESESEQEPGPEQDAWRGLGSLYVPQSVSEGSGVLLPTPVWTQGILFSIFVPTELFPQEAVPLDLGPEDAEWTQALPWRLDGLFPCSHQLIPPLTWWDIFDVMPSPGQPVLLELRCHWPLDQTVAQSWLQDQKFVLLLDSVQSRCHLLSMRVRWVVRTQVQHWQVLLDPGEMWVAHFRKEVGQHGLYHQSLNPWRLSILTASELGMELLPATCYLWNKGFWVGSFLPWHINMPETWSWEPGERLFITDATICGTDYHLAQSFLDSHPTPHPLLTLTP
The assay is described as above.

Assay [7] addresses T7, C2V-Tex19.1 (mouse) (UniProt Q99MV2).
T7 sequence: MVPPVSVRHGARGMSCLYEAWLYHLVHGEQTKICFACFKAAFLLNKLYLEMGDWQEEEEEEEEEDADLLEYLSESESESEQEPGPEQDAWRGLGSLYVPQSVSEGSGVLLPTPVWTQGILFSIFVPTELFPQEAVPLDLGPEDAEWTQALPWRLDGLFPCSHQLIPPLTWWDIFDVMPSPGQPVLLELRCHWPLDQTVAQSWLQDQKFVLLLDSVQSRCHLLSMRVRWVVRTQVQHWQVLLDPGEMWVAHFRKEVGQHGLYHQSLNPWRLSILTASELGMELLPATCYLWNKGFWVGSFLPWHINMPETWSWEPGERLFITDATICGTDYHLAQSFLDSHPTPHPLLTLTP
Described as above.

In assay [8] the target is Ubr2 (mouse (endogenous in testis)) (UniProt Q6WKZ8). The assay can be described thus: co-IP; IP from testicular extracts of 20-day-old wild type and Tex19.1-/- mice with anti-Tex19.1 or anti-Ubr2 antibody, then western blot.

Take Ubr2 (from UniProt Q6WKZ8 1-1755): in assay [1], the binding entry is “binds”.
For the molecule “Ubr2 (untagged, transfected) (from UniProt Q6WKZ8 1-1755)”, the binding entry in assay [2] was “binds”; in assay [3] it was “binds”; in assay [4], “binds”; in assay [5] it was “no binding”; in assay [6], “binds”; in assay [7] it was “binds”.

B1: Tex19.1 (protein, UniProt Q99MV2 1-351)
chain: MCPPVSVRHGARGMSCLYEAWLYHLVHGEQTKICFACFKAAFLLNKLYLEMGDWQEEEEEEEEEDADLLEYLSESESESEQEPGPEQDAWRGLGSLYVPQSVSEGSGVLLPTPVWTQGILFSIFVPTELFPQEAVPLDLGPEDAEWTQALPWRLDGLFPCSHQLIPPLTWWDIFDVMPSPGQPVLLELRCHWPLDQTVAQSWLQDQKFVLLLDSVQSRCHLLSMRVRWVVRTQVQHWQVLLDPGEMWVAHFRKEVGQHGLYHQSLNPWRLSILTASELGMELLPATCYLWNKGFWVGSFLPWHINMPETWSWEPGERLFITDATICGTDYHLAQSFLDSHPTPHPLLTLTP
On to B1, for which the binding result in assay [8] is recorded as “binds”.
